Experiments:
[1] = biological target: T1, neutral endopeptidase (NEP) (Homo sapiens, UniProt P08473); test: Sensitivity towards proteolytic degradation by neutral endopeptidase (NEP); format: in vitro ADME; conditions: 4 hours incubation with 0.6 μg/ml NEP at 37° C., then activity on the rat receptor cell line
T1 construct: purchased R&D Systems 1182-ZNC

[2] = biological target: T2, insulin degrading enzyme (IDE) (Rattus norvegicus, UniProt P35559); test: Sensitivity towards proteolytic degradation by insulin degrading enzyme (IDE); conditions: 4 hours incubation with 0.6 μg/ml IDE at 37° C., then activity on the rat receptor cell line
T2 sequence (P35559 42-1019 limits assumed): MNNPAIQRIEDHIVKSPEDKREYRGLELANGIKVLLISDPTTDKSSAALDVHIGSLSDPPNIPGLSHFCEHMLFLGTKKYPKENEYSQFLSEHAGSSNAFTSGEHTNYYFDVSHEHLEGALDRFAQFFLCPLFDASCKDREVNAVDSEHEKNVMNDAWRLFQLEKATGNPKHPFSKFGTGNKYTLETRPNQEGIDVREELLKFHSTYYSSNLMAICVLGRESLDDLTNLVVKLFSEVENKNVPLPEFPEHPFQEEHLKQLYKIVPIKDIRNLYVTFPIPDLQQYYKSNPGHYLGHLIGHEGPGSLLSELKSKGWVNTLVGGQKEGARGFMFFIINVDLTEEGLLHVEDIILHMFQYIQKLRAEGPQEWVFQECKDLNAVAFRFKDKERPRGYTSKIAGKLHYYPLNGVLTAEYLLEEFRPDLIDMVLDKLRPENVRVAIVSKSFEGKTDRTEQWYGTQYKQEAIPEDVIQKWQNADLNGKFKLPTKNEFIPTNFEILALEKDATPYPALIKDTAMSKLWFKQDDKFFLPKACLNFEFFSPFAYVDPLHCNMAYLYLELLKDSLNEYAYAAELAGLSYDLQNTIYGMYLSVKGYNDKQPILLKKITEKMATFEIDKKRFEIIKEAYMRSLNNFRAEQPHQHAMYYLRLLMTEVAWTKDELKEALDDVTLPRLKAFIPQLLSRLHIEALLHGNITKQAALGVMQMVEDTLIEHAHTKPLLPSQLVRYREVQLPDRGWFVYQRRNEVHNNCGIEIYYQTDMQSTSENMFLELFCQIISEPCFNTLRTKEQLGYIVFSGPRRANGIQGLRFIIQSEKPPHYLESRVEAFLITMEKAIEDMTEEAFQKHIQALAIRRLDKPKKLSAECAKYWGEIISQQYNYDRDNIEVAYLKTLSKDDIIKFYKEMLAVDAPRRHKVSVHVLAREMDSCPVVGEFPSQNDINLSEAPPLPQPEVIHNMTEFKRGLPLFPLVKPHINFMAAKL

T1 sequence (P08473 52-750 limits assumed): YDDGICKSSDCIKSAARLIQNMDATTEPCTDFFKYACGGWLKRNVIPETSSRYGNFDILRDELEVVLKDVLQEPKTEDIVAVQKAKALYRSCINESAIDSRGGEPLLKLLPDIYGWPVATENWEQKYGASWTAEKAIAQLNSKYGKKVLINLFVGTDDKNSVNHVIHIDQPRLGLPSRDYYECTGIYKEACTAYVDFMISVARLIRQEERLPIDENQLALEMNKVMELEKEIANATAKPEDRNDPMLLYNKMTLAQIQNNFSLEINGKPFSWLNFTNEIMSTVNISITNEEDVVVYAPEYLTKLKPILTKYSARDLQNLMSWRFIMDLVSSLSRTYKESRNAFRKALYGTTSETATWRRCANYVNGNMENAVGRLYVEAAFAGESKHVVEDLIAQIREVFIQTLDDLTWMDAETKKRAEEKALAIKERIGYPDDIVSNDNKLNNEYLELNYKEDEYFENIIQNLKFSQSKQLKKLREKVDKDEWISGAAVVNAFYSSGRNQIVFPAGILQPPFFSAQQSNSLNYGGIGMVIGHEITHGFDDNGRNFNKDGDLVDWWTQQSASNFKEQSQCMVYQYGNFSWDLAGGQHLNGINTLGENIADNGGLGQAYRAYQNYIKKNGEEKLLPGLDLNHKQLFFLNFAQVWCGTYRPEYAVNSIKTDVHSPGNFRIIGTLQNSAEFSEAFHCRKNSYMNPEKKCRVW

B1: TPP-12377: CNP engrafted antibody, CDRH3; HC SEQ ID NO 445, LC SEQ ID NO 66 (antibody, listed as Homo sapiens)
heavy: EVQLLESGGGLVQPGGSLRLSCAASGFTFSSYAMSWVRQAPGKGLEWVSAISGSGGSTYYADSVKGRFTISRDNSKNTLYLQMNSLRAEDTAVYYCTSVHQETKKYQSSPYKGANKKGLSKGCFGLKLDRIGSMSGLGCGSGGSGSYSYTYNYEWHVDVWGQGTLVTVSS[in this place human IgG1 constant region]
light: QSVLTQPPSVSGAPGQRVTISCTGSSSNIGAGYDVHWYQQLPGTAPKLLIYGNSNRPSGVPDRFSGSKSGTSASLAITGLQAEDEADYYCQSYDSSLSGVVFGGGTKLTVLGQPKAAPSVTLFPPSSEELQANKATLVCLISDFYPGAVTVAWKADSSPVKAGVETTTPSKQSNNKYAASSYLSLTPEQWKSHRSYSCQVTHEGSTVEKTVAPTECS
modifications: NP engrafted HC
With B1 the “sensitivity towards proteolytic degradation by NEP” value [1] was “high resistance” and the “sensitivity towards proteolytic degradation by IDE” value [2] was “high resistance”.

Reference: patent publication US12390508B2, “Brain natriuretic peptide engrafted antibodies” (Boehringer Ingelheim International GmbH, priority 2018, dated 2025)
